# Measured values taken from the supplement of paper PMC10037445.
# ± gives the standard deviation of the averaged measurements. In all, about 2,900 compounds were measured (“NF-kB SEAP reporter activity, fold change vs agonist alone”: median about 0.99, highest 2% from about 2.6 on). This is one part of the list.
# Key:
# RAW-Dual [1] = test: NF-kB SEAP reporter activity, fold change vs agonist alone; higher = enhanced NF-kB activity; conditions: library stock concentration (final ~1000-fold dilution): 10 mM
# Summary of the method: (§1)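 RAW-Dual macrophages (50,000 cells/well in DMEM, 384-well plates) received 50 nL of library stock by pin tool, then a PRR agonist 1 h later, and were kept at 37 °C, 5% CO2. After 20 hours, supernatant was read for IRF by QuantiLuc luminescence and for NF-κB by QuantiBlue absorbance at 620 nm. Reporter activity is fold change over agonist-alone wells. Cytotoxic wells had IncuCyte confluency below 70% of agonist controls in both mask sets.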
# RAW-Dual [2] = test: NF-kB SEAP reporter activity, fold change vs agonist alone; cytotoxicity flag (confluency mask): not cytotoxic; higher = enhanced NF-kB activity
# Summary of the method: as §1
# RAW-Dual [3] = test: NF-kB SEAP reporter activity, fold change vs agonist alone; cytotoxicity flag (confluency mask): cytotoxic (confluency <70% of control); higher = enhanced NF-kB activity
# Summary of the method: as §1
# [4] = cytotoxicity flag (confluency mask): not cytotoxic, agonist: Imiquimod (TLR7) […]
# [5] = cytotoxicity flag (confluency mask): not cytotoxic, agonist: MPLA (TLR4) […]
# [6] = agonist: ODN 1826 (TLR9) 0.5 ug/mL
# [7] = agonist: Pam2CSK4 (TLR2/6) 0.1 ug/mL
# [8] = agonist: Pam3CSK4 (TLR2/1) 0.1 ug/mL
# [9] = cytotoxicity flag (confluency mask): cytotoxic (confluency <70% of control), agonist: MPLA (TLR4) […]
smiles,measurement,setting,value
COc1ccc2c(c1)C1(CC1c1ccc3c(/C=C/c4ccc(CN5CC(C)OC(C)C5)cc4)n[nH]c3c1)C(=O)N2 (stereo not given),NF-kB SEAP reporter activity,RAW-Dual [1]; [4],0.656
same,NF-kB SEAP reporter activity,RAW-Dual [1]; [5],0.699
COc1ccc2c(c1)C1(CC1c1ccc3c(/C=C/c4ccc(CN5CC(C)OC(C)C5)cc4)n[nH]c3c1)C(=O)N2 (stereo not given) (library stock concentration (final ~1000-fold dilution): 10 mM),NF-kB SEAP reporter activity,RAW-Dual [2]; agonist: LPS (TLR4) 0.1 ug/mL,0.612
same,NF-kB SEAP reporter activity,RAW-Dual [2]; [6],0.225
same,NF-kB SEAP reporter activity,RAW-Dual [2]; [7],0.481
same,NF-kB SEAP reporter activity,RAW-Dual [2]; [8],0.345
CC(C)CN(CC(O)C(Cc1ccccc1)NC(=O)OC1COC2OCCC12)S(=O)(=O)c1ccc(N)cc1 (stereo not given),NF-kB SEAP reporter activity,RAW-Dual [1]; [5],1.62
CC(C)CN(CC(O)C(Cc1ccccc1)NC(=O)OC1COC2OCCC12)S(=O)(=O)c1ccc(N)cc1 (stereo not given) (library stock concentration (final ~1000-fold dilution): 10 mM),NF-kB SEAP reporter activity,RAW-Dual [2]; agonist: LPS (TLR4) 0.1 ug/mL,1.73
same,NF-kB SEAP reporter activity,RAW-Dual [2]; [6],1.7
same,NF-kB SEAP reporter activity,RAW-Dual [2]; [7],1.48
same,NF-kB SEAP reporter activity,RAW-Dual [2]; [8],1.56
CS(=O)(=O)O.Fc1ccc(C2CCNCC2COc2ccc3c(c2)OCO3)cc1 (stereo not given) (library stock concentration (final ~1000-fold dilution): 10 mM),NF-kB SEAP reporter activity,RAW-Dual [3]; agonist: LPS (TLR4) 0.1 ug/mL,1.08
same,NF-kB SEAP reporter activity,RAW-Dual [3]; [6],0.542
same,NF-kB SEAP reporter activity,RAW-Dual [3]; [7],0.486
same,NF-kB SEAP reporter activity,RAW-Dual [3]; [8],0.425
CS(=O)(=O)O.Fc1ccc(C2CCNCC2COc2ccc3c(c2)OCO3)cc1 (stereo not given),NF-kB SEAP reporter activity,RAW-Dual [1]; [9],1.43
COc1ccc(-c2cc(C(F)F)nn2-c2ccc(S(N)(=O)=O)cc2)cc1F,NF-kB SEAP reporter activity,RAW-Dual [1]; [4],1.26
same,NF-kB SEAP reporter activity,RAW-Dual [1]; [5],1.13
COc1ccc(-c2cc(C(F)F)nn2-c2ccc(S(N)(=O)=O)cc2)cc1F (library stock concentration (final ~1000-fold dilution): 10 mM),NF-kB SEAP reporter activity,RAW-Dual [2]; agonist: LPS (TLR4) 0.1 ug/mL,1.26
same,NF-kB SEAP reporter activity,RAW-Dual [2]; [6],1.14
same,NF-kB SEAP reporter activity,RAW-Dual [2]; [7],0.959
same,NF-kB SEAP reporter activity,RAW-Dual [2]; [8],1.19
COc1ccc(CCNCC(O)COc2cccc(C)c2)cc1OC.Cl (stereo not given),NF-kB SEAP reporter activity,RAW-Dual [1]; [5],1.06
COc1ccc(CCNCC(O)COc2cccc(C)c2)cc1OC.Cl (stereo not given) (library stock concentration (final ~1000-fold dilution): 10 mM),NF-kB SEAP reporter activity,RAW-Dual [2]; agonist: LPS (TLR4) 0.1 ug/mL,1.02
same,NF-kB SEAP reporter activity,RAW-Dual [2]; [6],0.846
same,NF-kB SEAP reporter activity,RAW-Dual [2]; [7],0.999
same,NF-kB SEAP reporter activity,RAW-Dual [2]; [8],1.08
CCN(CC)C(=O)C1(c2ccccc2)CC1CN.Cl (stereo not given) (library stock concentration (final ~1000-fold dilution): 10 mM),NF-kB SEAP reporter activity,RAW-Dual [2]; agonist: LPS (TLR4) 0.1 ug/mL,0.999
same,NF-kB SEAP reporter activity,RAW-Dual [2]; [6],0.858
same,NF-kB SEAP reporter activity,RAW-Dual [2]; [7],0.856
same,NF-kB SEAP reporter activity,RAW-Dual [2]; [8],1.18
CCN(CC)C(=O)C1(c2ccccc2)CC1CN.Cl (stereo not given),NF-kB SEAP reporter activity,RAW-Dual [1]; [4],1.02
same,NF-kB SEAP reporter activity,RAW-Dual [1]; [5],1.1
FC(F)(F)Oc1ccc2[nH]c(-c3ccc(OCCOCCOc4ccc(-c5nc6cc(OC(F)(F)F)ccc6[nH]5)nc4)cn3)nc2c1 (library stock concentration (final ~1000-fold dilution): 10 mM),NF-kB SEAP reporter activity,RAW-Dual [2]; agonist: LPS (TLR4) 0.1 ug/mL,0.228
same,NF-kB SEAP reporter activity,RAW-Dual [2]; [6],0.633
same,NF-kB SEAP reporter activity,RAW-Dual [2]; [7],0.199
same,NF-kB SEAP reporter activity,RAW-Dual [2]; [8],0.192
FC(F)(F)Oc1ccc2[nH]c(-c3ccc(OCCOCCOc4ccc(-c5nc6cc(OC(F)(F)F)ccc6[nH]5)nc4)cn3)nc2c1,NF-kB SEAP reporter activity,RAW-Dual [1]; [4],0.717
same,NF-kB SEAP reporter activity,RAW-Dual [1]; [5],0.895
CN1CCN(CCCNc2ncc(Cl)c(-c3cc4c(C(=O)NC5CC5)cccc4s3)n2)CC1.Cl.Cl.Cl,NF-kB SEAP reporter activity,RAW-Dual [1]; [4],0.215 ± 0.045
same,NF-kB SEAP reporter activity,RAW-Dual [1]; [5],0.2944 ± 0.00089
CN1CCN(CCCNc2ncc(Cl)c(-c3cc4c(C(=O)NC5CC5)cccc4s3)n2)CC1.Cl.Cl.Cl (library stock concentration (final ~1000-fold dilution): 10 mM),NF-kB SEAP reporter activity,RAW-Dual [2]; agonist: LPS (TLR4) 0.1 ug/mL,0.313 ± 0.14
same,NF-kB SEAP reporter activity,RAW-Dual [2]; [6],0.174 ± 0.0094
same,NF-kB SEAP reporter activity,RAW-Dual [2]; [7],0.0865 ± 0.0023
same,NF-kB SEAP reporter activity,RAW-Dual [2]; [8],0.134 ± 0.0077
COC1C(OC(=O)/C=C/C=C/C=C/C=C/C(=O)O)CCC2(CO2)C1C1(C)OC1CC=C(C)C (stereo not given),NF-kB SEAP reporter activity,RAW-Dual [1]; [4],0.99
same,NF-kB SEAP reporter activity,RAW-Dual [1]; [5],1.11
COC1C(OC(=O)/C=C/C=C/C=C/C=C/C(=O)O)CCC2(CO2)C1C1(C)OC1CC=C(C)C (stereo not given) (library stock concentration (final ~1000-fold dilution): 10 mM),NF-kB SEAP reporter activity,RAW-Dual [2]; agonist: LPS (TLR4) 0.1 ug/mL,1.03
same,NF-kB SEAP reporter activity,RAW-Dual [2]; [6],0.846
same,NF-kB SEAP reporter activity,RAW-Dual [2]; [7],0.819
same,NF-kB SEAP reporter activity,RAW-Dual [2]; [8],0.688
C[C@H]1O[C@@H](O[C@H]2CC[C@@]3(C)[C@@H](CC[C@]4(C)[C@@H]3C=C[C@]35OC[C@@]6(CCC(C)(C)C[C@H]63)[C@H](O)C[C@]54C)[C@]2(C)CO)[C@H](O)[C@@H](O[C@@H]2O[C@H](CO)[C@@H](O)[C@H](O)[C@H]2O)[C@H]1O (library stock concentration (final ~1000-fold dilution): 10 mM),NF-kB SEAP reporter activity,RAW-Dual [3]; agonist: LPS (TLR4) 0.1 ug/mL,0.316
same,NF-kB SEAP reporter activity,RAW-Dual [3]; [6],0.274
same,NF-kB SEAP reporter activity,RAW-Dual [3]; [7],0.104
same,NF-kB SEAP reporter activity,RAW-Dual [3]; [8],0.197
C[C@H]1O[C@@H](O[C@H]2CC[C@@]3(C)[C@@H](CC[C@]4(C)[C@@H]3C=C[C@]35OC[C@@]6(CCC(C)(C)C[C@H]63)[C@H](O)C[C@]54C)[C@]2(C)CO)[C@H](O)[C@@H](O[C@@H]2O[C@H](CO)[C@@H](O)[C@H](O)[C@H]2O)[C@H]1O,NF-kB SEAP reporter activity,"RAW-Dual [1]; cytotoxicity flag (confluency mask): cytotoxic (confluency <70% of control), agonist: Imiquimod (TLR7) […]",0.222
same,NF-kB SEAP reporter activity,RAW-Dual [1]; [9],0.421
CN(C)c1ccc2c(c1)Sc1cc(N(C)C)ccc1N2 (library stock concentration (final ~1000-fold dilution): 10 mM),NF-kB SEAP reporter activity,RAW-Dual [2]; agonist: LPS (TLR4) 0.1 ug/mL,2.18
same,NF-kB SEAP reporter activity,RAW-Dual [2]; [6],0.242
same,NF-kB SEAP reporter activity,RAW-Dual [2]; [7],0.844
same,NF-kB SEAP reporter activity,RAW-Dual [2]; [8],1.42
CN(C)c1ccc2c(c1)Sc1cc(N(C)C)ccc1N2,NF-kB SEAP reporter activity,RAW-Dual [1]; [4],1.44
same,NF-kB SEAP reporter activity,RAW-Dual [1]; [5],2.01
CCCc1nc(C(C)(C)O)c(C(=O)O)n1Cc1ccc(-c2ccccc2-c2nnn[nH]2)cc1 (library stock concentration (final ~1000-fold dilution): 10 mM),NF-kB SEAP reporter activity,RAW-Dual [2]; agonist: LPS (TLR4) 0.1 ug/mL,0.868
same,NF-kB SEAP reporter activity,RAW-Dual [2]; [6],1.02
same,NF-kB SEAP reporter activity,RAW-Dual [2]; [7],1.13
same,NF-kB SEAP reporter activity,RAW-Dual [2]; [8],1.3
CCCc1nc(C(C)(C)O)c(C(=O)O)n1Cc1ccc(-c2ccccc2-c2nnn[nH]2)cc1,NF-kB SEAP reporter activity,RAW-Dual [1]; [4],0.948
same,NF-kB SEAP reporter activity,RAW-Dual [1]; [5],1.1
CC(C)(C)c1cc(O)ccc1O (library stock concentration (final ~1000-fold dilution): 10 mM),NF-kB SEAP reporter activity,RAW-Dual [2]; agonist: LPS (TLR4) 0.1 ug/mL,0.991
same,NF-kB SEAP reporter activity,RAW-Dual [2]; [6],0.851
same,NF-kB SEAP reporter activity,RAW-Dual [2]; [7],0.556
same,NF-kB SEAP reporter activity,RAW-Dual [2]; [8],0.711
CC(C)(C)c1cc(O)ccc1O,NF-kB SEAP reporter activity,RAW-Dual [1]; [4],0.56
same,NF-kB SEAP reporter activity,RAW-Dual [1]; [5],0.821
